# Results published in the supplement of paper PMC11741623.
# The other results are listed elsewhere or left out. Interaction screen of human proteins with wild-type SARS-CoV-2 proteins by split-DHFR complementation in yeast, 1 µg/mL methotrexate. Value = fitness of the pair (three or more lineages) minus that of the viral protein without a human partner, on a scale set by negative (0) and fused positive (1) controls, mean of up to three cultures; higher = more likely to interact. Active = false discovery rate below 0.05 (one-sided t-test) in at least one culture. Nearly all pairs are not hits, and differences among them are mostly noise (correlation between cultures about 0.3); most hits were seen in one culture only. Human sequences are the Swiss-Prot entries looked up by gene name; the clone may be another isoform. NSP2 values were corrected by the authors for a growth advantage. Listed are human proteins with a hit and a random twelfth of the others.
# B1: C7orf53, Q8N8F7 (protein)
# chain: MTHSSQDTGSCGIQEDGKLYVVDSINDLNKLNLCPAGSQHLFPLEDKIPVLGTNSGNGSRSLFFVGLLIVLIVSLALVFFVIFLIVQTGNKMDDVSRRLTAEGKDIDDLKRINNMIVKRLNQLNQLDSEQN
# B2: ATP5J, P18859 (protein)
# chain: MILQRLFRFSSVIRSAVSVHLRRNIGVTAVAFNKELDPIQKLFVDKIREYKSKRQTSGGPVDASSEYQQELERELFKLKQMFGNADMNTFPTFKFEDPKFEVIEKPQA
# B3: CNN2, Q99439 (protein)
# chain: MSSTQFNKGPSYGLSAEVKNRLLSKYDPQKEAELRTWIEGLTGLSIGPDFQKGLKDGTILCTLMNKLQPGSVPKINRSMQNWHQLENLSNFIKAMVSYGMNPVDLFEANDLFESGNMTQVQVSLLALAGKAKTKGLQSGVDIGVKYSEKQERNFDDATMKAGQCVIGLQMGTNKCASQSGMTAYGTRRHLYDPKNHILPPMDHSTISLQMGTNKCASQVGMTAPGTRRHIYDTKLGTDKCDNSSMSLQMGYTQGANQSGQVFGLGRQIYDPKYCPQGTVADGAPSGTGDCPDPGEVPEYPPYYQEEAGY
# B4: C7orf13, Q8NI28 (protein)
# chain: MLASPARPTLRMLANHALSTPHCACSPAPAPRTASASRRRCVPVEARAAGVFGDRLAGVFGSRGLKHGGVQAPRPRVVRAEPRAGFAVVRSPRRLCGRSHAPQPPAHLGLGPGCFPAVAVVVPVPGSRAHRPFAALLVEGSFLGDPPIPPRRSGVLARGSAGADCLASSVTPGPSLWIPLLLVAGCVSCFVGLAVCVWMQARVSPAWPAGLFLLPR
# Molecular target: SARS-CoV-2 E
# Experiment: yeast fitness gain over the viral ORF with no human partner (scaled fitness); higher = more likely to interact
# Protocol: (§1)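 Split mouse DHFR complementation in pooled diploid yeast: human ORFeome clones carry one fragment and viral ORFs the other; barcoded lineages compete in 1 µg/mL methotrexate and fitness is read by barcode sequencing in up to three cultures.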
row,Binder,yeast fitness gain
1,B1,inactive: 0.048
2,B2,inactive: 0.0922
3,B3,inactive: 0.0768
4,B4,inactive: 0.0739

# Molecular target: SARS-CoV-2 M
# Experiment: as above
# Protocol: as §1
row,Binder,yeast fitness gain
1,B1,inactive: 0.037
2,B2,inactive: 0.0259
3,B3,inactive: 0.031
4,B4,inactive: 0.0375

# Molecular target: SARS-CoV-2 N
# Experiment: as above
# Protocol: as §1
row,Binder,yeast fitness gain
1,B1,inactive: 0.0548
2,B2,inactive: 0.16
3,B3,inactive: 0.0777
4,B4,inactive: 0.0646

# Molecular target: SARS-CoV-2 NSP1
# Experiment: as above
# Protocol: as §1
row,Binder,yeast fitness gain
1,B1,inactive: 0.0642
2,B2,inactive: 0.0295
3,B3,inactive: 0.0647
4,B4,inactive: -0.0167

# Molecular target: SARS-CoV-2 NSP10
# Experiment: as above
# Protocol: as §1
row,Binder,yeast fitness gain
1,B1,inactive: 0.0343
2,B2,inactive: -0.00336
3,B3,inactive: 0.00247
4,B4,inactive: 0.0019

# Molecular target: SARS-CoV-2 NSP12
# Experiment: as above
# Protocol: as §1
row,Binder,yeast fitness gain
1,B1,inactive: 0.0552
2,B2,inactive: 0.0287
3,B3,inactive: 0.0538
4,B4,inactive: 0.0492

# Molecular target: SARS-CoV-2 NSP13
# Experiment: as above
# Protocol: as §1
row,Binder,yeast fitness gain
1,B1,inactive: 0.0209
2,B2,inactive: 0.0411
3,B3,inactive: -0.011
4,B4,inactive: 0.03

# Molecular target: SARS-CoV-2 NSP14
# Experiment: as above
# Protocol: as §1
row,Binder,yeast fitness gain
1,B1,inactive: 0.00413
2,B2,inactive: 0.0997
3,B3,inactive: 0.023
4,B4,inactive: -0.35

# Molecular target: SARS-CoV-2 NSP15
# Experiment: as above
# Protocol: as §1
row,Binder,yeast fitness gain
1,B1,inactive: 0.0192
2,B3,inactive: 0.0225
3,B4,inactive: 0.0426

# Molecular target: SARS-CoV-2 NSP16
# Experiment: as above
# Protocol: as §1
row,Binder,yeast fitness gain
1,B1,inactive: 0.0122
2,B3,inactive: 0.0405
3,B4,inactive: -0.189

# Molecular target: SARS-CoV-2 NSP2
# Experiment: as above
# Protocol: as §1
row,Binder,yeast fitness gain
1,B1,inactive: -0.104
2,B2,inactive: -0.105
3,B3,inactive: -0.046
4,B4,inactive: -0.0924

# Molecular target: SARS-CoV-2 NSP4
# Experiment: as above
# Protocol: as §1
row,Binder,yeast fitness gain
1,B1,inactive: 0.124
2,B2,inactive: 0.0226
3,B3,inactive: 0.011
4,B4,inactive: 0.00744

# Molecular target: SARS-CoV-2 NSP5
# Experiment: as above
# Protocol: as §1
row,Binder,yeast fitness gain
1,B1,inactive: -0.018
2,B2,inactive: 0.0625
3,B3,inactive: 0.031
4,B4,inactive: 0.00683

# Molecular target: SARS-CoV-2 NSP6
# Experiment: as above
# Protocol: as §1
row,Binder,yeast fitness gain
1,B1,inactive: 0.0427
2,B2,inactive: 0.0441
3,B3,inactive: -0.0202
4,B4,inactive: 0.0509

# Molecular target: SARS-CoV-2 NSP7
# Experiment: as above
# Protocol: as §1
row,Binder,yeast fitness gain
1,B1,inactive: -0.0999
2,B2,inactive: -0.168
3,B3,inactive: -0.0258
4,B4,inactive: -0.00513

# Molecular target: SARS-CoV-2 NSP8
# Experiment: as above
# Protocol: as §1
row,Binder,yeast fitness gain
1,B1,inactive: 0.0541
2,B2,inactive: -0.107
3,B3,inactive: 0.0553
4,B4,inactive: -0.0371

# Molecular target: SARS-CoV-2 NSP9
# Experiment: as above
# Protocol: as §1
row,Binder,yeast fitness gain
1,B1,inactive: 0.0305
2,B2,inactive: 0.0473
3,B3,inactive: 0.066
4,B4,inactive: -0.0357

# Molecular target: SARS-CoV-2 ORF10
# Experiment: as above
# Protocol: as §1
row,Binder,yeast fitness gain
1,B1,inactive: 0.0183
2,B2,inactive: 0.0162
3,B3,inactive: 0.012
4,B4,inactive: 0.0392

# Molecular target: SARS-CoV-2 ORF3A
# Experiment: as above
# Protocol: as §1
row,Binder,yeast fitness gain
1,B1,inactive: 0.0206
2,B3,inactive: 0.0966
3,B4,inactive: 0.0779

# Molecular target: SARS-CoV-2 ORF3B
# Experiment: as above
# Protocol: as §1
row,Binder,yeast fitness gain
1,B1,inactive: 0.00319
2,B2,inactive: 0.0093
3,B3,inactive: 0.0133
4,B4,inactive: 0.00981

# Molecular target: SARS-CoV-2 ORF6
# Experiment: as above
# Protocol: as §1
row,Binder,yeast fitness gain
1,B1,active: 0.0419
2,B3,inactive: 0.0337
3,B4,inactive: 0.0463

# Molecular target: SARS-CoV-2 ORF7A
# Experiment: as above
# Protocol: as §1
row,Binder,yeast fitness gain
1,B1,inactive: 0.00734
2,B2,inactive: 0.0696
3,B3,inactive: 0.0198
4,B4,inactive: 0.0372

# Molecular target: SARS-CoV-2 ORF7B
# Experiment: as above
# Protocol: as §1
row,Binder,yeast fitness gain
1,B1,inactive: 0.125
2,B2,inactive: -0.00135
3,B3,inactive: -0.03
4,B4,inactive: 0.0347

# Molecular target: SARS-CoV-2 ORF8
# Experiment: as above
# Protocol: as §1
row,Binder,yeast fitness gain
1,B1,inactive: 0.0253
2,B2,inactive: 0.018
3,B3,inactive: 0.00965
4,B4,inactive: 0.0366

# Molecular target: SARS-CoV-2 ORF9B
# Experiment: as above
# Protocol: as §1
row,Binder,yeast fitness gain
1,B1,inactive: -0.00213
2,B2,inactive: 0.0417
3,B3,inactive: 0.0179
4,B4,inactive: 0.0136

# Molecular target: SARS-CoV-2 ORF9Bwu (the 73-codon ORF)
# Experiment: as above
# Protocol: as §1
row,Binder,yeast fitness gain
1,B1,inactive: 0.0144
2,B2,inactive: -0.0994
3,B3,inactive: -0.0729
4,B4,inactive: 0.00208

# Molecular target: SARS-CoV-2 S
# Experiment: as above
# Protocol: as §1
row,Binder,yeast fitness gain
1,B1,inactive: 0.028
2,B2,inactive: 0.109
3,B3,inactive: -0.0254
4,B4,inactive: 0.0503
